# Data as given in PMC9911399, “Two distinct binding modes provide the RNA-binding protein RbFox with extraordinary sequence specificity”.
# Where a chain is given by its changes, count along the chain named. Some of the results follow.
# T1: RBFOX1 RRM RbFoxmut (Fox-RRM*) (Homo sapiens, UniProt Q9NWB1 109-208, R118D;E147R;N151S;E152T)
# T1 sequence: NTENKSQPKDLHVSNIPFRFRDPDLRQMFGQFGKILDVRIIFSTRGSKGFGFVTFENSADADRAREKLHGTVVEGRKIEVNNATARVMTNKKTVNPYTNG
# B1: GUUACAG (DNA:RNA)
# RNA: GGGAGACCGGAAUUCAGAUUGUCCGUUACAGUUAAAUCCCGUCGUAGCCACCA
# DNA 1: CAATCTGAATTCCGGTCTCCC
# DNA 2: TGGTGGCTACGACGGGATT
# B2: UAUUAAU (DNA:RNA)
# RNA: B1 RNA with G25U, U26A, A28U, C29A, G31U
# DNA 1: CAATCTGAATTCCGGTCTCCC
# DNA 2: TGGTGGCTACGACGGGATT
# B3: UGGUAUA (DNA:RNA)
# RNA: GGGAGACCGGAAUUCAGAUUGUCCUGGUAUAUUAAAUCCCGUCGUAGCCACCA
# DNA 1: CAATCTGAATTCCGGTCTCCC
# DNA 2: TGGTGGCTACGACGGGATT
# B4: UGCAUAU (DNA:RNA)
# RNA: B1 RNA with G25U, U26G, U27C, C29U, G31U
# DNA 1: CAATCTGAATTCCGGTCTCCC
# DNA 2: TGGTGGCTACGACGGGATT
# B5: AACCUAU (DNA:RNA)
# RNA: B1 RNA with G25A, U26A, U27C, A28C, C29U, G31U
# DNA 1: CAATCTGAATTCCGGTCTCCC
# DNA 2: TGGTGGCTACGACGGGATT
# B6: ACCCUCU (DNA:RNA)
# RNA: GGGAGACCGGAAUUCAGAUUGUCCACCCUCUUUAAAUCCCGUCGUAGCCACCA
# DNA 1: CAATCTGAATTCCGGTCTCCC
# DNA 2: TGGTGGCTACGACGGGATT
# B7: GUGUAGU (DNA:RNA)
# RNA: B3 RNA with U25G, G26U, U30G, A31U
# DNA 1: CAATCTGAATTCCGGTCTCCC
# DNA 2: TGGTGGCTACGACGGGATT
# B8: GCAGCUU (DNA:RNA)
# RNA: B6 RNA with A25G, C27A, C28G, U29C, C30U
# DNA 1: CAATCTGAATTCCGGTCTCCC
# DNA 2: TGGTGGCTACGACGGGATT
# B9: UAACAGC (DNA:RNA)
# RNA: B3 RNA with G26A, G27A, U28C, U30G, A31C
# DNA 1: CAATCTGAATTCCGGTCTCCC
# DNA 2: TGGTGGCTACGACGGGATT
# B10: UAGAAGA (DNA:RNA)
# RNA: B3 RNA with G26A, U28A, U30G
# DNA 1: CAATCTGAATTCCGGTCTCCC
# DNA 2: TGGTGGCTACGACGGGATT
# B11: ACGCGAA (DNA:RNA)
# RNA: B6 RNA with C27G, U29G, C30A, U31A
# DNA 1: CAATCTGAATTCCGGTCTCCC
# DNA 2: TGGTGGCTACGACGGGATT
# B12: GGUGUUA (DNA:RNA)
# RNA: B3 RNA with U25G, G27U, U28G, A29U
# DNA 1: CAATCTGAATTCCGGTCTCCC
# DNA 2: TGGTGGCTACGACGGGATT
# B13: AGACUUC (DNA:RNA)
# RNA: B6 RNA with C26G, C27A, C30U, U31C
# DNA 1: CAATCTGAATTCCGGTCTCCC
# DNA 2: TGGTGGCTACGACGGGATT
# B14: GACACGG (DNA:RNA)
# RNA: B1 RNA with U26A, U27C, A30G
# DNA 1: CAATCTGAATTCCGGTCTCCC
# DNA 2: TGGTGGCTACGACGGGATT
# B15: GGACUUU (DNA:RNA)
# RNA: B6 RNA with A25G, C26G, C27A, C30U
# DNA 1: CAATCTGAATTCCGGTCTCCC
# DNA 2: TGGTGGCTACGACGGGATT
# B16: AGUGCUA (DNA:RNA)
# RNA: B3 RNA with U25A, G27U, U28G, A29C
# DNA 1: CAATCTGAATTCCGGTCTCCC
# DNA 2: TGGTGGCTACGACGGGATT
# B17: CCGAAUC (DNA:RNA)
# RNA: B3 RNA with U25C, G26C, U28A, A31C
# DNA 1: CAATCTGAATTCCGGTCTCCC
# DNA 2: TGGTGGCTACGACGGGATT
# B18: GUACAUU (DNA:RNA)
# RNA: B6 RNA with A25G, C26U, C27A, U29A, C30U
# DNA 1: CAATCTGAATTCCGGTCTCCC
# DNA 2: TGGTGGCTACGACGGGATT
# B19: UGACUCC (DNA:RNA)
# RNA: B6 RNA with A25U, C26G, C27A, U31C
# DNA 1: CAATCTGAATTCCGGTCTCCC
# DNA 2: TGGTGGCTACGACGGGATT
# B20: CUCUAAC (DNA:RNA)
# RNA: B1 RNA with G25C, U27C, A28U, C29A, G31C
# DNA 1: CAATCTGAATTCCGGTCTCCC
# DNA 2: TGGTGGCTACGACGGGATT
# B21: UGCGUUA (DNA:RNA)
# RNA: B3 RNA with G27C, U28G, A29U
# DNA 1: CAATCTGAATTCCGGTCTCCC
# DNA 2: TGGTGGCTACGACGGGATT
# B22: UACCCGU (DNA:RNA)
# RNA: B6 RNA with A25U, C26A, U29C, C30G
# DNA 1: CAATCTGAATTCCGGTCTCCC
# DNA 2: TGGTGGCTACGACGGGATT
# B23: UUUCACG (DNA:RNA)
# RNA: B1 RNA with G25U, A28C, C29A, A30C
# DNA 1: CAATCTGAATTCCGGTCTCCC
# DNA 2: TGGTGGCTACGACGGGATT
# B24: GGUUAUC (DNA:RNA)
# RNA: B3 RNA with U25G, G27U, A31C
# DNA 1: CAATCTGAATTCCGGTCTCCC
# DNA 2: TGGTGGCTACGACGGGATT
# B25: CCCAGAG (DNA:RNA)
# RNA: B1 RNA with G25C, U26C, U27C, C29G
# DNA 1: CAATCTGAATTCCGGTCTCCC
# DNA 2: TGGTGGCTACGACGGGATT
# B26: AUCUAGU (DNA:RNA)
# RNA: B6 RNA with C26U, C28U, U29A, C30G
# DNA 1: CAATCTGAATTCCGGTCTCCC
# DNA 2: TGGTGGCTACGACGGGATT
# B27: AUAUUGC (DNA:RNA)
# RNA: B6 RNA with C26U, C27A, C28U, C30G, U31C
# DNA 1: CAATCTGAATTCCGGTCTCCC
# DNA 2: TGGTGGCTACGACGGGATT
# B28: CUUAUCG (DNA:RNA)
# RNA: B1 RNA with G25C, C29U, A30C
# DNA 1: CAATCTGAATTCCGGTCTCCC
# DNA 2: TGGTGGCTACGACGGGATT
# B29: GAUCUAA (DNA:RNA)
# RNA: B1 RNA with U26A, A28C, C29U, G31A
# DNA 1: CAATCTGAATTCCGGTCTCCC
# DNA 2: TGGTGGCTACGACGGGATT
# B30: GGUGACU (DNA:RNA)
# RNA: B6 RNA with A25G, C26G, C27U, C28G, U29A
# DNA 1: CAATCTGAATTCCGGTCTCCC
# DNA 2: TGGTGGCTACGACGGGATT
# B31: AGAAAGA (DNA:RNA)
# RNA: B3 RNA with U25A, G27A, U28A, U30G
# DNA 1: CAATCTGAATTCCGGTCTCCC
# DNA 2: TGGTGGCTACGACGGGATT
# Molecular target: T1, RBFOX1 RRM RbFoxmut (Fox-RRM*)
# Assay: EMSA; HiTS-Eq, 1 nM pool, 10 min; buffer printed only for the single-RNA assays: 10 mM Tris pH 7.5, 150 mM NaCl, 3.4 mM EDTA, 0.001% NP-40, 30 C
# Conditions: tags: His6 N-terminal (pET28a); label: 5' 32P
# In short: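 Purified wild-type or mutant RbFox RRM at increasing concentrations was equilibrated with 1 nM of 5′-radiolabelled RNA carrying 7 randomized nucleotides for 10 min in 50 µL. Unbound RNA was separated by 8% native PAGE and sequenced. Relative association constants came from read-count changes of each RNA species compared with the control reaction, normalised to the cognate motif.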
row,Binder,binding signal
1,B1,0.114 KA relative to UGCAUGU
2,B2,0.0483 KA relative to UGCAUGU
3,B3,0.157 KA relative to UGCAUGU
4,B4,0.178 KA relative to UGCAUGU
5,B5,0.101 KA relative to UGCAUGU
6,B6,0.0517 KA relative to UGCAUGU
7,B7,0.177 KA relative to UGCAUGU
8,B8,0.0815 KA relative to UGCAUGU
9,B9,0.0657 KA relative to UGCAUGU
10,B10,0.0717 KA relative to UGCAUGU
11,B11,0.138 KA relative to UGCAUGU
12,B12,0.12 KA relative to UGCAUGU
13,B13,0.0578 KA relative to UGCAUGU
14,B14,0.0551 KA relative to UGCAUGU
15,B15,0.0541 KA relative to UGCAUGU
16,B16,0.124 KA relative to UGCAUGU

row,Binder,binding signal
1,B17,0.173 KA relative to UGCAUGU
2,B18,0.0921 KA relative to UGCAUGU
3,B19,0.0842 KA relative to UGCAUGU
4,B20,0.0722 KA relative to UGCAUGU
5,B21,0.154 KA relative to UGCAUGU
6,B22,0.094 KA relative to UGCAUGU
7,B23,0.132 KA relative to UGCAUGU
8,B24,0.162 KA relative to UGCAUGU
9,B25,0.105 KA relative to UGCAUGU
10,B26,0.14 KA relative to UGCAUGU
11,B27,0.133 KA relative to UGCAUGU
12,B28,0.078 KA relative to UGCAUGU
13,B29,0.0764 KA relative to UGCAUGU
14,B30,0.0583 KA relative to UGCAUGU
15,B31,0.0869 KA relative to UGCAUGU
